# The other results are listed elsewhere or left out.
# System: HSkMC (human skeletal muscle cells)
# Experiment: cytotoxicity call (relative viability < 0.9)
# Conditions: 10 µM
row,SMILES,cytotoxicity call
1,Cc1ccc(S(=O)(=O)N(C)C[C@@H]2OCCCC[C@@H](C)Oc3ccc(NC(=O)Nc4ccccc4)cc3C(=O)N([C@@H](C)CO)C[C@@H]2C)cc1,inactive
2,C[C@H](CO)N1C[C@H](C)[C@@H](CN(C)C(=O)Nc2ccccc2)Oc2ccc(NS(C)(=O)=O)cc2C1=O,inactive
3,CC(C)NC(=O)N(C)C[C@H]1Oc2cc(C#Cc3ccccn3)ccc2S(=O)(=O)N([C@H](C)CO)C[C@@H]1C,inactive
4,COc1ccc(NC(=O)N(C)C[C@H]2Oc3c(NC(=O)Nc4ccc(C(F)(F)F)cc4)cccc3C(=O)N([C@@H](C)CO)C[C@@H]2C)cc1,active
5,C[C@H]1CN([C@@H](C)CO)C(=O)c2cc(NC(=O)CCN3CCOCC3)ccc2O[C@H]1CN(C)Cc1ccncc1,inactive
6,C[C@@H]1CN([C@H](C)CO)S(=O)(=O)c2ccc(C#Cc3cccc(F)c3)cc2O[C@@H]1CN(C)S(=O)(=O)c1cn(C)cn1,inactive
7,C[C@@H]1CN([C@H](C)CO)C(=O)CCCn2cc(nn2)CO[C@@H]1CN(C)S(=O)(=O)c1ccc2ccccc2c1,inactive
8,C[C@H]1CN([C@@H](C)CO)C(=O)c2c(c3ccccc3n2C)-c2ccccc2CO[C@@H]1CN(C)C(=O)Nc1cccc(C(F)(F)F)c1,inactive
9,O=C(C[C@H]1CC[C@@H]2[C@H](COC[C@H](O)CN2C(=O)Nc2ccc3c(c2)OCO3)O1)N1CCN(c2ccccc2)CC1,inactive
10,O=C(NC1CCCCC1)N(CCCl)[NH2+][O-],inactive
11,C[C@H]1O[C@@H](O[C@H]2[C@@H](O)C[C@H](O[C@H]3[C@@H](O)C[C@H](O[C@H]4CC[C@@]5(C)[C@H](CC[C@@H]6[C@@H]5CC[C@]5(C)[C@@H](C7=CC(=O)OC7)CC[C@]65O)C4)O[C@@H]3C)O[C@@H]2C)C[C@H](O)[C@@H]1O,active
